Experimental data published in PubChem BioAssay (NCATS).
Where “and” joins values, the source holds several entries; their conditions need not be identical. Identical values can stand only once. Inconclusive results, whose numbers are uncertain, are shown with a selection of clear calls. Where the call is inconclusive, the potency comes from a doubtful curve fit. Calls of active or inactive are those of the source. Calls come from the whole dose curve; as a rule, active = well fitted curve in the direction sought with a large enough effect; inconclusive = small, poorly fitted or top-dose-only effect, or another doubt; inactive = no such curve, though single readings can be large; an effect the other way counts as inactive or inconclusive.

What was measured:
[1] = qHTS of pediatric cancer cell lines to identify multiple opportunities for drug repurposing: Primary screen for SK-N-MC cells (AID 1347093); settings: SK-N-MC viability, CellTiter-Glo luminescence, 48 h; activity change, negative = cytotoxic: at 46 µM (top of the series)
How it was run: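 Metabolically active cells were quantified by ATP-dependent luminescence (CellTiter-Glo, 15 min at room temperature) following 48 h treatment. Cells had been plated at 500-1,000 per well and settled for 5 h beforehand.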

[2] = qHTS of pediatric cancer cell lines to identify multiple opportunities for drug repurposing: Primary screen for BT-37 cells (AID 1347094)
How it was run: (§1)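 Readout: CellTiter-Glo luminescence, 48 h treatment. Controls DMSO (neutral) and bortezomib 2.3 µM final (positive). Potency and efficacy taken from primary-screen concentration-response curves.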

[3] = qHTS of pediatric cancer cell lines to identify multiple opportunities for drug repurposing: Primary screen for U-2 OS cells (AID 1347096); note: nearly all actives have a fitted effect of over 50% in size
How it was run: (§2)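 Cells (500-1,000/well) rested 5 h, then received compounds for 48 h; metabolically active cells were measured by CellTiter-Glo luminescence. Final concentrations spanned up to 46 µM (MIPE, 11-point) or 0.59 nM-46 µM (NPC, 8-point) in primary screens, 11-point in follow-ups.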

[4] = qHTS of pediatric cancer cell lines to identify multiple opportunities for drug repurposing: Primary screen for Saos-2 cells (AID 1347097); settings: Saos-2 viability, CellTiter-Glo ATP luminescence, 48 h; activity change, negative = cytotoxic: at 46 µM (top of the series); note: nearly all actives have a fitted effect of over 40% in size
How it was run: as §1

[5] = qHTS of pediatric cancer cell lines to identify multiple opportunities for drug repurposing: Primary screen for SK-N-SH cells (AID 1347098); note: nearly all actives have a fitted effect of over 65% in size
How it was run: as §2

[6] = qHTS of pediatric cancer cell lines to identify multiple opportunities for drug repurposing: Primary screen for BT-12 cells (AID 1347101); note: nearly all actives have a fitted effect of over 25% in size
How it was run: as §2

[7] = qHTS of pediatric cancer cell lines to identify multiple opportunities for drug repurposing: Primary screen for NB-EBc1 cells (AID 1347095)
How it was run: as §1

[8] = qHTS of pediatric cancer cell lines to identify multiple opportunities for drug repurposing: Primary screen for LAN-5 cells (AID 1347100); settings: LAN-5 neuroblastoma viability, CellTiter-Glo luminescence, 48 h; activity change, negative = cytotoxic: at 46 µM (top of the series)
How it was run: as §2

[9] = qHTS of pediatric cancer cell lines to identify multiple opportunities for drug repurposing: Primary screen for NB1643 cells (AID 1347099); note: nearly all actives have a fitted effect of over 50% in size
How it was run: as §1
Potency is the fitted concentration of half-maximal effect; tags give direction and shape of the fitted curve.

SMILES	Potency [1]	Potency [2]	Potency [3]	Potency [4]	Potency [5]	Potency [6]	Potency [7]	Potency [8]	Potency [9]
O=c1cc(-c2ccc(O)cc2)oc2cc(O)cc(O)c12	inconclusive: 5.9 µM [cytotoxic, full curve, poor fit]	active: 3.06 µM	inconclusive: 11.8 µM [cytotoxic, partial curve, poor fit]	active: 14.8 µM	inconclusive: 42.9 µM [cytotoxic, single point]	active: 3.43 µM			
CCN(CC)CCOc1ccc(/C(=C(\Cl)c2ccccc2)c2ccccc2)cc1	inconclusive: 33.5 µM [cytotoxic, single point]	inconclusive: 38.9 µM [cytotoxic, single point]	inconclusive: 26.6 µM [cytotoxic, single point]	active: 26.6 µM			inconclusive: 21.1 µM [cytotoxic, single point]	active: 18.8 µM	
CNC1CCCN(c2c(F)cc3c(=O)c(C(=O)O)cn(C4CC4)c3c2OC)C1 (stereo not given)	inconclusive: 10.5 µM [cytotoxic, full curve, poor fit]	inconclusive: 9.68 µM [cytotoxic, partial curve]	inactive	inactive		inconclusive: 19.3 µM [cytotoxic, partial curve, poor fit]		inconclusive: 18.7 µM [cytotoxic, partial curve]	
Oc1ccc2ccccc2c1SSc1c(O)ccc2ccccc12	inconclusive: 33.2 µM [cytotoxic, single point]	inconclusive: 43.2 µM [cytotoxic, partial curve, poor fit]		inconclusive: 33.2 µM [cytotoxic, single point]		inconclusive: 43.2 µM [cytotoxic, single point]	inconclusive: 33.2 µM [cytotoxic, single point]	inconclusive: 33.2 µM [cytotoxic, single point]	
COCCCN1CCC(NC(=O)c2cc(Cl)c(N)c3c2OCC3)CC1	inconclusive: 37.2 µM [cytotoxic, single point]	inconclusive: 27.3 µM [cytotoxic, partial curve, poor fit]		inconclusive: 33.2 µM [cytotoxic, single point]		inconclusive: 38.5 µM [cytotoxic, single point]	inconclusive: 37.2 µM [cytotoxic, single point]	inconclusive: 23.5 µM [cytotoxic, single point]	inconclusive: 33.2 µM [cytotoxic, single point]
CC(C)CNc1ccnc(NCc2csc(-c3ccccc3)n2)n1	active: 10.5 µM	active: 24.3 µM		inconclusive: 37.2 µM [cytotoxic, single point]	inconclusive: 38.3 µM [cytotoxic, single point]	active: 6.85 µM		active: 14.8 µM	inconclusive: 33.2 µM [cytotoxic, single point]
C#CC(C)(CC)OC(=O)c1ccccc1C(=O)O (stereo not given)	inactive	inactive							
COc1cc2c3cc1Oc1cc(ccc1O)C[C@@H]1c4c(cc(OC)c(O)c4Oc4ccc(cc4)C[C@@H]3N(C)CC2)CC[N+]1(C)C	inconclusive: 0.0053 µM [cytotoxic, full curve, poor fit]								
Nc1ccc([N+](=O)[O-])cc1O	active: 0.001 µM	inconclusive: 35.5 µM [cytotoxic, partial curve, poor fit]		inconclusive: 43.3 µM [cytotoxic, partial curve, poor fit]	inactive	inconclusive: 17.8 µM [cytotoxic, partial curve]	active: 15.4 µM	inconclusive: 17.2 µM [cytotoxic, partial curve]	inconclusive: 0.001 µM [cytotoxic, full curve]
COC(=O)Nc1nc2ccc(Sc3ccccc3)cc2[nH]1	active: 841 nM and active: 590 nM	active: 1.74 µM and active: 3.06 µM	active: 13.3 µM and inconclusive: 9.35 µM [cytotoxic, partial curve]		inconclusive: 0.386 µM [cytotoxic, full curve]		inconclusive: 29.9 µM [cytotoxic, single point] and active: 469 nM		inconclusive: 1.19 µM [cytotoxic, full curve] and inconclusive: 5.9 µM [cytotoxic, partial curve]
